Data: article PMC3430861, “The pharmacological profile of ELIC, a prokaryotic GABA-gated receptor” (Neuropharmacology, 2012)

Legend:
[1] = target: T1, Q2′N mutant ELIC (Dickeya chrysanthemi, UniProt P0C7B7, INS163G/Q232N)
[2] = target: T2, T6'S mutant ELIC (Dickeya chrysanthemi, UniProt P0C7B7, INS163G/T236S)
[3] = target: T1, Q2′N mutant ELIC; remark: listed apart in the source
[4] = target: T2, T6'S mutant ELIC; remark: listed apart in the source

SMILES | EC50 [1] [µM] | pEC50 [1] | EC50 [2] [µM] | pEC50 [2] | increase of IC50 relative to wild type [3] [fold] | increase of IC50 relative to wild type [4] [fold]
NCCCC(=O)O [GABA] | 1800 | 2.74 ± 0.02 | 1800 | 2.75 ± 0.02 | – | –
O=S1OC[C@@H]2[C@H](CO1)[C@@]1(Cl)C(Cl)=C(Cl)[C@]2(Cl)C1(Cl)Cl (stereo partly drawn) [α-endosulfan] | – | – | – | – | > 10 | > 10
